For 22 molecules, binding signal results are on record in PMC12136788.

The other results are listed elsewhere or left out.

T1: UNK ZnF1-6 (called full-length) (human, UniProt Q9C0B0 30-357)
T1 sequence: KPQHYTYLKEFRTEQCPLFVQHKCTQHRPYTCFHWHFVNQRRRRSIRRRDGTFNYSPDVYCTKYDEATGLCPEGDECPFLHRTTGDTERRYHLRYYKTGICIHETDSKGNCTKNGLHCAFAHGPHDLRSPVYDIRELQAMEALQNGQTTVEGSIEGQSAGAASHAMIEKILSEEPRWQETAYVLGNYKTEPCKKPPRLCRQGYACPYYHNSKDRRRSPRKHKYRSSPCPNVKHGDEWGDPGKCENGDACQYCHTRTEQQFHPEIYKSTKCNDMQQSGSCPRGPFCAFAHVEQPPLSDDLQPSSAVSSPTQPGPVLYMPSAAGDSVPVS

B1: chr2:165880514:165880799:-|CDS|ENSG00000123607|control|control|control (ssRNA)
RNA: GGGAGUUCUACAGUCCGACGAUCGAUGGCAUGGAAAUAUAGCAAUCGGACAAAUCCGGCAGUAGGUGAGUUUGGCAAUCACCUAGAUUUUUCACAGAAAAAUUAUGUUGUAUUUAUUAAUUUUCAUUUAAAUGCAUUUGAUUUCAACAGAGGAUUGAGCAUCA
B2: ENSG00000070961:be:win_1701|CDS|ENSG00000070961|bound_else_gene|NA|bound_elsewhere_windowed (ssRNA)
RNA: GGGAGUUCUACAGUCCGACGAUCACCAGAAGAAGCACUGUACAAAGUCUACACCUUCAAUUCUGUUAGGAAGUCCAUGAGUACUGUCCUGAAAAAUUCAGAUGGAAGUUAUCGAAUAUUCAGCAAGGGUGCAUCUGAGAUAAUCAACAGAGGAUUGAGCAUCA
B3: chr21:25881051:25881209:-|3pUTR|ENSG00000142192|msi1_unk|total|mutant (ssRNA)
RNA: GGGAGUUCUACAGUCCGACGAUCUUUUUUUUCCAUGACUGCAUUUUACUGUACAGAUUGCUGCUUCUGCUAUAUUUGUGAUACCGGAAUUAAGAGGAUACACACGUUUGUUUCUUCGUGCCUGUUUUAUGUGCACACAUCCGGCAACAGAGGAUUGAGCAUCA
B4: chr22:43879677:43880794:-|three_prime_utr|ENSG00000100341|control|control|control (ssRNA)
RNA: GGGAGUUCUACAGUCCGACGAUCGAGAAAGGAGGACAGCCACAGAGACACAUGUCUUACUUUCAGAAUUUCCACGGGGGGACUAGGAGGGCAGCAUUGCUGGGGAGAGGGGCUCCUGUUCUGCCGUGGAGCUGCCCACGGAGCCAACAGAGGAUUGAGCAUCA
B5: chr8:23842113:23842214:-|3pUTR|ENSG00000159167|msi1|total|mutant (ssRNA)
RNA: GGGAGUUCUACAGUCCGACGAUCACUUCCGACAUUUUUGUGCCAUUAUAUUUGCAUUAUGUAUUUAUAAUUUAAAUGAUAUUCCGGUUUUUGGCUGAGUACUGGAAUAAACAGUGAGCAUAUCUGGUAUAUGUCAUUAUUUAUCAACAGAGGAUUGAGCAUCA
B6: chr9:15171111:15171212:-|3pUTR|ENSG00000155158|unk|FALSE|unique (ssRNA)
RNA: GGGAGUUCUACAGUCCGACGAUCCUGCUUUAAAUGAUAUGUAAAAUAUCAAUAAUUUUUACACUUAAGAUGUUGGUAAGACCUAGUUUUCUAAUCUCUCUAGCACUGUGAUGUCUCCUUGUAGAUAAUCUGGACCUUGCUUAGCAACAGAGGAUUGAGCAUCA
B7: chr12:107752058:107752159:-|CDS|ENSG00000110851|unk|FALSE|unique (ssRNA)
RNA: GGGAGUUCUACAGUCCGACGAUCUAACUCUAUAAAUGUUGAUGGUAAUACAGCAUUAUCUAUCACCAAUAACCCUUCAGCACUAGAUCCCUAUCAGUCCAAUGGAAAUGUUGGAUUAGAACCAGGCAUUGUUUCAAUAGACUCCAACAGAGGAUUGAGCAUCA
B8: chr5:132541444:132541810:-|three_prime_utr|ENSG00000113525|control|control|control (ssRNA)
RNA: GGGAGUUCUACAGUCCGACGAUCAAAUUGAUAUACUUUUUUCUUAUUUAACUUAACAUUCUGUAAAAUGUCUGUUAACUUAAUAGUAUUUAUGAAAUGGUUAAGAAUUUGGUAAAUUAGUAUUUAUUUAAUGUUAUGUUGUGUCAACAGAGGAUUGAGCAUCA
B9: chr8:86558718:86558819:+|3pUTR|ENSG00000085719|unk|FALSE|unique (ssRNA)
RNA: GGGAGUUCUACAGUCCGACGAUCCUGUUGUUGUUUUUGUUUACUUUCAUAUGAUGAAAAUGCUGUGUUUAAGUGUUUGUCAAUAGGAAGAAUGGAAAACUGUUGGGAUGAUGUGGUUUGCAGGUUGCUGUGCCUGAUUCACAGCAACAGAGGAUUGAGCAUCA
B10: chr14:75059847:75060235:-|three_prime_utr|ENSG00000119640|control|control|control (ssRNA)
RNA: GGGAGUUCUACAGUCCGACGAUCAACCACAUUAAAAAAAUAAAAAGGAUAACUGGAAAAUCCCAAAAUAUUUGGAAACCAUAUAGCACACUUACUUCUAAAAUUGUGGUAGAAUACAUAUAACAUAGAAAUUAUUGUUCUAACCAACAGAGGAUUGAGCAUCA
B11: chr7:56101660:56101848:-|3pUTR|ENSG00000106153|msi1|total|mutant (ssRNA)
RNA: GGGAGUUCUACAGUCCGACGAUCUGGAGAGAUGGAAAAUCAGCUCUCAUAACUAAGUUAAUUCCGUAUAAAAACCGAAUUGACCGUGAGGGUAUAAAGUGUAACCAUCAGUUAAACCUCUCCUGUCAUUCCUGGCUUCCUUGCCAACAGAGGAUUGAGCAUCA
B12: chr14:100882551:100882663:-|CDS|ENSG00000254656|unk|total|mutant (ssRNA)
RNA: GGGAGUUCUACAGUCCGACGAUCGCUCUCCCCAGACCCUAUCAUACCUCAGAACGUGAUUCACUUCAUCCUAAAGGACAUGCCCGGGUUCUUUGUGCUUUCUUAUGGCCAGGAAGUCCUGAUCUACUCAAUGAGUCAGGAGGACAACAGAGGAUUGAGCAUCA
B13: chr19:1826877:1828631:-|CDS|ENSG00000079313|control|control|control (ssRNA)
RNA: GGGAGUUCUACAGUCCGACGAUCCGACAGGAAGAGCACCAAGGCCCCGUCGGGGAAGCUAGUGGAGCGGAAAGCCCGCUCACUAGACGAGGGCGCCUCCCAGGACGCCCCCAAGCUGAAGAAGCGGGCCCUGAGCCACGCCGACAACAGAGGAUUGAGCAUCA
B14: chr15:49644301:49644402:+|3pUTR|ENSG00000104047|msi1|total|mutant (ssRNA)
RNA: GGGAGUUCUACAGUCCGACGAUCAAUAAUUGAAGCCUACCUGCCCGUGGCCAUCUCUGCUGCCAGGUGAAAAGAGCCUGACUCCGAAUGAAGUCAGCGAAGGAAAGCAGAGUGGAGAGAAAAAGAGAGACUGAGUCCUGAUGACAACAGAGGAUUGAGCAUCA
B15: chr11:72288215:72288316:-|3pUTR|ENSG00000162129|unk|total|mutant (ssRNA)
RNA: GGGAGUUCUACAGUCCGACGAUCACCCAGCUAAUUUUUUUUGUAUUUUCCGUAAAGACGGGGUUUCACCAUGUUUGCCAGGCCCGUCUCAAACUCCUGGUCUCAAGUGAUCCACCCACCUUGGCCUCCCAGAGUGCUGAGAUUCAACAGAGGAUUGAGCAUCA
B16: ENSG00000196526:stop:overlap|stop_codon|ENSG00000196526|stop_codon|NA|stop_codon (ssRNA)
RNA: GGGAGUUCUACAGUCCGACGAUCCCCCCUGCCGAGGGCAUGUGCUGCGGAAGGCCAAGGAAUGGGAAUUGAAGAACGGGACCUAGGGGACAGCAGCACCACUCCAGCCUCAGAGACUGCACACCCCCUUGCCUGUAUCCUCAUCAACAGAGGAUUGAGCAUCA
B17: chr5:134606522:134606623:-|3pUTR|ENSG00000152700|msi1_unk|FALSE|overlapping (ssRNA)
RNA: GGGAGUUCUACAGUCCGACGAUCAACUAUAAACCAUAUUUAAAAGCUCAUCAUGUUAAAUUUUUUAUGUACUUUUCUGGAACUAGUUUUUAAAUUUUAGAUUAUAUGUCCACCUAUCUUAAGUGUACAGUUAAUAAUUAGCUUCAACAGAGGAUUGAGCAUCA
B18: chr17:30194318:30198530:-|three_prime_utr|ENSG00000108576|control|control|control (ssRNA)
RNA: GGGAGUUCUACAGUCCGACGAUCCCAGACUCAAGGCCUCCAGCCACUUAUUUCCAUGGAUUCCCCUGGACAUAUUCCCAUGGUAGACUGUGACACAGCUGAGCUGGCCUAUUUUGGACGUGUGAGGAUGUGGAUGGAGGUGAUCAACAGAGGAUUGAGCAUCA
B19: chr6:26414640:26414744:+|3pUTR|ENSG00000026950|unk|FALSE|unique (ssRNA)
RNA: GGGAGUUCUACAGUCCGACGAUCCAGGCAGAGCAAAUACCCUAGAGAUUCUCUGUGAUAUAGGAAAUUUGGAUGAAGGGAGCUAGAAGAAAUACAGGGAUUUUUUUUUUUUUUUAAGAUGGAGUCUUACUCUGUUGCUAGGCUCAACAGAGGAUUGAGCAUCA
B20: ENSG00000140564:stop:overlap|stop_codon|ENSG00000140564|stop_codon|NA|stop_codon (ssRNA)
RNA: GGGAGUUCUACAGUCCGACGAUCGCACGGCACACGGUGUGCGGGGGAAGUGGCUGCGGUGGCCAACAACGGUGUCUGUGGUGUAGGUGUGGCCUACAACGCCCGCAUUGGAGGGGUGCGCAUGCUGGAUGGCGAGGUGACAGACAACAGAGGAUUGAGCAUCA
B21: ENSG00000135018:stop:overlap|stop_codon|ENSG00000135018|stop_codon|NA|stop_codon (ssRNA)
RNA: GGGAGUUCUACAGUCCGACGAUCUAGCAACAGGAGGUGAUAUCAAUGCAGCUAUUGAAAGGUUACUGGGCUCCCAGCCAUCAUAGCAGCAUUUCUGUAUCUUGAAAAAAUGUAAUUUAUUUUUGAUAACGGCUCUUAAACUUUCAACAGAGGAUUGAGCAUCA
B22: chr17:81921741:81921842:-|3pUTR|ENSG00000197063|msi1|FALSE|unique (ssRNA)
RNA: GGGAGUUCUACAGUCCGACGAUCAAUUAUAUGUUUAAAAGUUAAAGAAAAAAGAGCUGCAGAGUAUUUAUAAAACUGUCUUUUAGAAAAAAAACAAGCAAGAAGACCAUUUGACCAUAUGAAUGGAAAAGGGAAGAAAGUAUACAACAGAGGAUUGAGCAUCA

In this assay the target is T1, UNK ZnF1-6 (called full-length). The assay can be described thus: nsRBNS (natural sequence RNA bind-n-seq); RBNS binding buffer (assumed for nsRBNS): 25 mM Tris pH 7.5, 150 mM KCl, 3 mM MgCl2, 0.01% Triton X-100, 500 ug/ml BSA, 20 U/ml SUPERase-In, 4 C; UNK is unkempt and MSI1 is Musashi-1; names of the RNAs are library labels; protein concentration not given here; high values mean tight binding.
The molecule B1 returned a binding signal of 0.541 enrichment R.

For B2, the binding signal amounted to 0.292 enrichment R.

The molecule B3 showed a binding signal of 0.394 enrichment R.

In turn, B4 registered a binding signal of 1.05 enrichment R.

The molecule B5 registered a binding signal of 0.575 enrichment R.

As for B6, the binding signal was determined as 1.17 enrichment R.

As for B7, the binding signal turned out to be 0.391 enrichment R.

The molecule B8 displayed a binding signal of 7.43 enrichment R.

Molecule B9 came in with a binding signal of 0.424 enrichment R.

B10: the binding signal was found to be 2.02 enrichment R.

In the case of B11, the binding signal came out at 0.253 enrichment R.

B12 showed a binding signal of 0.569 enrichment R.

For B13, the binding signal was 0.735 enrichment R.

Turning to B14, the binding signal stood at 0.574 enrichment R.

In the case of B15, the binding signal was found to be 2.56 enrichment R.

Consider B16, for which the binding signal turned out to be 2.74 enrichment R.

B17 came in with a binding signal of 25.7 enrichment R.

As for B18, the binding signal is 0.707 enrichment R.

As to B19, the binding signal was 4.98 enrichment R.

Molecule B20 registered a binding signal of 2.94 enrichment R.

B21: the binding signal worked out at 0.495 enrichment R.

B22 returned a binding signal of 2.78 enrichment R.
